Measured values: PMC5849617
Results are given in words; binding and its absence hold for the method and conditions named. For part of these data: In cells and extracts the contact can be indirect. Some entries that bind do so weakly or less than the wild type. One block for each substance: values may come before it.

By UniProt entry, the sequences of proteins in these tests, tags left out. Where a name states a change or a piece, a line headed by the entry shows the natural chain unless it says otherwise. Chains listed by the source or under a name are the forms on record and can include a tag or linker. Residues count along the entry.
UniProt Q02413: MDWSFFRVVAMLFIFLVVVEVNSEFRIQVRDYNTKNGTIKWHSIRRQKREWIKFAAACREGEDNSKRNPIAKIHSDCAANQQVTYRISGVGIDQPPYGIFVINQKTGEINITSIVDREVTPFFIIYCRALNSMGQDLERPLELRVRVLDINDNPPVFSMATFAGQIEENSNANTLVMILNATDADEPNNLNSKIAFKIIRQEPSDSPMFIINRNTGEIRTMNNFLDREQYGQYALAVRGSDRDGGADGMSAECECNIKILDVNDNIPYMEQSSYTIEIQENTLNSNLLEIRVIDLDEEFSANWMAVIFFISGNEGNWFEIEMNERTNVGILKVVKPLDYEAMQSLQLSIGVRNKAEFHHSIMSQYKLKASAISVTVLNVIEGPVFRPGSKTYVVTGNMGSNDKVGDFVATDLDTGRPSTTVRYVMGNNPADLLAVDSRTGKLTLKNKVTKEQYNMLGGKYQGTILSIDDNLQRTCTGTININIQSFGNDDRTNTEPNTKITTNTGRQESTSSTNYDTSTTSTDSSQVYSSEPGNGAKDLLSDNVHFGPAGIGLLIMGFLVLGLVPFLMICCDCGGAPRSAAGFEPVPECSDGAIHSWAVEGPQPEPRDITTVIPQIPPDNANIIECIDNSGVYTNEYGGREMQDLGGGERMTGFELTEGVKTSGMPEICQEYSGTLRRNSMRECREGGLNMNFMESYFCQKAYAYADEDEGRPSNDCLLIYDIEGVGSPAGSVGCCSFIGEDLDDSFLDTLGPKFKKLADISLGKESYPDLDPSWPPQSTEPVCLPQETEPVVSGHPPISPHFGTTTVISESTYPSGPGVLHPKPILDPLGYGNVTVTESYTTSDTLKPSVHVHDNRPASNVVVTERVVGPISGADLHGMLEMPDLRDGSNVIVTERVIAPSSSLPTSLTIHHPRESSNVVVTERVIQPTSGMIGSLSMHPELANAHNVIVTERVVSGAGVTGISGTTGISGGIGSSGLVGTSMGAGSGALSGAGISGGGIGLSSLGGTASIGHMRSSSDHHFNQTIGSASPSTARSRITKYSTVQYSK
Dsg1-GFP (GFP-FLAG Dsg1, full length): residues 50-1049 of Q02413
Sos-Dsg1(cyto), desmoglein 1 cytoplasmic tail fused to Sos: residues 570-1049 of Q02413
Sos-Dsg1(909–1049): residues 909-1049 of Q02413
UniProt Q14126, residues 50-1118: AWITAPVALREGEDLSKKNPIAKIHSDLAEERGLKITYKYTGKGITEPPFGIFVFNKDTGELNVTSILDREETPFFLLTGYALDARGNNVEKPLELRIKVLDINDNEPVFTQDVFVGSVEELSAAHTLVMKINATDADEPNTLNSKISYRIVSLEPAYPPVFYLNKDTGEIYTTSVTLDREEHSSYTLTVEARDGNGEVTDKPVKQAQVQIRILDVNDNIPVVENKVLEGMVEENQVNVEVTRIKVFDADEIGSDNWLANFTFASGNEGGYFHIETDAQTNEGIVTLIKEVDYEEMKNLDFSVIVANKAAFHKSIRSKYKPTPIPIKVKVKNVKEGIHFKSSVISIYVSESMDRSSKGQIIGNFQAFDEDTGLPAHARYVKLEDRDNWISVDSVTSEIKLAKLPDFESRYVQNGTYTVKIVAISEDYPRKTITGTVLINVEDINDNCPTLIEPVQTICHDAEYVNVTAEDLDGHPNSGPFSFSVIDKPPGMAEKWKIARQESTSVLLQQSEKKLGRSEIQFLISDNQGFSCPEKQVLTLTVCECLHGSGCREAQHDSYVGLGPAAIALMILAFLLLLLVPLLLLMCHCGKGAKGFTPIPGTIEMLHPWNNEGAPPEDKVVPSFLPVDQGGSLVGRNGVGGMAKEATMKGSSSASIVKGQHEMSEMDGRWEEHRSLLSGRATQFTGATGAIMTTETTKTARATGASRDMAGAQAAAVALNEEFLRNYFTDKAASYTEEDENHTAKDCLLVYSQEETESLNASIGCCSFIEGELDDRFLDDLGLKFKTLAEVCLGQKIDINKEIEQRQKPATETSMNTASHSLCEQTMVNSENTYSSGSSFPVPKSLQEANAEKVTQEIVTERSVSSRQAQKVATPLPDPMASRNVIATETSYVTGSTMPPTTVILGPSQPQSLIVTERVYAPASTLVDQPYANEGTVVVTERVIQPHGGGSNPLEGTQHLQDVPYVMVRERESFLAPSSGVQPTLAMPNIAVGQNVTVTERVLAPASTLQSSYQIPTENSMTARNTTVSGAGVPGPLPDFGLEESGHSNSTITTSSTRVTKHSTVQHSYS
UniProt P63172: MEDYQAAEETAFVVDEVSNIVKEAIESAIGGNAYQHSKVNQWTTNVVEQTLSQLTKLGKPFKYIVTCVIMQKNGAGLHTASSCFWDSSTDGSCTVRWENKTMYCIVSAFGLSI
UniProt Q14247: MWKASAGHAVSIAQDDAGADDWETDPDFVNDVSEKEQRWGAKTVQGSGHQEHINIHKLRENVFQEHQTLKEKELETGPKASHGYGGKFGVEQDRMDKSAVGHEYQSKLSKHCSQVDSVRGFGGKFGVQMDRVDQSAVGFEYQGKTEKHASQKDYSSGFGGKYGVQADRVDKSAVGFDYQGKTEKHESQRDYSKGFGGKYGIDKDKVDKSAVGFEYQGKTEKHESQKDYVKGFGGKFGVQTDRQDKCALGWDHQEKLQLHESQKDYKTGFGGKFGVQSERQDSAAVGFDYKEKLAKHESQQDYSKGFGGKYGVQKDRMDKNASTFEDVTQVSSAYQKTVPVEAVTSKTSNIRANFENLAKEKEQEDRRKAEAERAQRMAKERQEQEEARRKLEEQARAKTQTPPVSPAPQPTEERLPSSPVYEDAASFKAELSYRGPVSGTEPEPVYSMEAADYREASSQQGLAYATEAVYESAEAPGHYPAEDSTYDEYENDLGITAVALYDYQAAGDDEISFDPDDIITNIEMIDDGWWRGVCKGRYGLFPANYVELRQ

Legend:
[1] = target: Dsg1-GFP (GFP-FLAG Dsg1, full length) (human) (UniProt Q02413); assay: co-IP; GFP immunoprecipitation with GFP-Trap beads from lysates of undifferentiated NHEKs expressing GFP, Dsg1-GFP or Dsg2-GFP, with or without ectopic Tctex constructs (1% Triton, 145 mM NaCl, 10 mM Tris-HCl pH 7.4), 2 h at 4 °C; immunoblot
[2] = target: Dsg2-GFP (LZRS-GFP-FLAG Dsg2) (UniProt Q14126); assay: as above
[3] = target: endogenous desmoglein 1 of differentiated keratinocytes (human (endogenous in NHEK)) (UniProt Q02413); assay: proximity ligation; Duolink in situ PLA in differentiated NHEKs with primary antibodies against Dsg1 or E-cadherin and Tctex-1; with or without Dsg1 or Tctex-1 knockdown
[4] = target: Dsg1-FL-Flag, ectopic Dsg1 full length (human) (UniProt Q02413); assay: proximity ligation; Duolink in situ PLA in undifferentiated NHEKs with ectopic Dsg1-FL; primary antibodies against Dsg1, E-cadherin or Dsg2 and Tctex-1; with or without Tctex-1 knockdown
[5] = target: endogenous desmoglein 2 of keratinocytes (human (endogenous in NHEK)) (UniProt Q14126); assay: as above
[6] = target: Dsg1-FL-Flag, ectopic Dsg1 full length (human) (UniProt Q02413); assay: proximity ligation; Duolink in situ PLA in undifferentiated NHEKs retrovirally transduced with GFP, Dsg1-FL-Flag, Dsg1-909-Flag or Dsg1-ICS-Flag; primary antibodies against Flag and Tctex-1
[7] = target: Dsg1-FL-Flag, ectopic Dsg1 full length (human) (UniProt Q02413); assay: co-IP; ectopic FLAG-tagged Dsg1 constructs immunoprecipitated from NHEK lysates with M2-agarose beads (1% Triton, 145 mM NaCl, 10 mM Tris-HCl pH 7.4), 2 h at 4 °C; blot probed for Tctex-1; cells expressing only GFP as control
[8] = target: Dsg1-Δ569, Flag-tagged Dsg1 construct containing only the cytoplasmic domains (human) (UniProt Q02413); assay: as above
[9] = target: Sos-Dsg1(909–1049) (human) (UniProt Q02413); assay: two-hybrid; CytoTrap system in Cdc25H yeast; Sos-fused Dsg bait and pMyr prey (HeLa cDNA library in the screen, specific pMyr constructs for confirmation); growth on galactose at 37 °C indicates an interaction
[10] = target: Sos-Dsg1(cyto), desmoglein 1 cytoplasmic tail fused to Sos (human) (UniProt Q02413); assay: as above

- binding [1]: binds
Substance: Tctex-wt-Flag, ectopic wild type Tctex-1 (from UniProt P63172 1-113)

- binding [9]: binds
- binding [10]: binds
Substance: Myr-Tctex-1 (from UniProt P63172 1-113)

The remaining lines, values behind:

Substance: endogenous cortactin of keratinocytes (from UniProt Q14247 1-550)
- binding [1]: binds
- binding [2]: no binding

Substance: endogenous Tctex-1 of keratinocytes (from UniProt P63172 1-113)
- binding [3]: binds
- binding [4]: binds
- binding [5]: no binding
- binding [6]: binds
- binding [7]: binds
- binding [8]: binds

Substance: Tctex-t94e-Flag, Tctex-1 phosphomimetic mutant T94E (from UniProt P63172 1-113)
- binding [1]: binds
